Assay results published in US20160244527A1 (AFFITECH RESEARCH, published 2016).

Biological target: CXC chemokine receptor 4 (CXCR4), human (human, UniProt P61073 1-352)
Experiment: cell-based or functional assay

Sequence of UniProt P61073 (P61073 whole entry): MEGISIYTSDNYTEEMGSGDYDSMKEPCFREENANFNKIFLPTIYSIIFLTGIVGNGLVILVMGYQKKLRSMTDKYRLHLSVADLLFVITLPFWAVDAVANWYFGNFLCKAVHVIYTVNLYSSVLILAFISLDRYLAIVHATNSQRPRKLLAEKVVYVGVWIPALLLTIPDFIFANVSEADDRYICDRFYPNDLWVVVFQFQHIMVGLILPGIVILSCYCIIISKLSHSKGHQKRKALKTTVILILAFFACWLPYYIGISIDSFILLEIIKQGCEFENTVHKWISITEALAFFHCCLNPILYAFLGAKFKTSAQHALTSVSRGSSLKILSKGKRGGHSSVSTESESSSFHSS

B1: D-1K21 scFv (scFv)
scFv: [about 100 residues left out]RNLIAARPRNRGRDAFDIWGQGTMVTVSSKLSGSASAPKLEEGEFSEARVDIQMTQSPSTLSASVGDRVTITCRASQSIGGSLAWYQQKPGKGPNLLIYAASTLQSGVPSRFSGSGSGTEFTLTISSLQPEDSATYYCQHYESYPLSFGGGTKLEIKAAAGSEQKLISEEDLNSHHHHHH
ADCC, EC50 (ng/mL), scFv cross-linked with chimeric anti-cMyc IgG1: 18.8 ng/mL | ADCC, EC50, scFv, molar: 0.7 nM
